# According to the supplement of paper PMC12645437, “Orthogonal IMiD-Degron Pairs Induce Selective Protein Degradation in Cells” (ACS Chemical Biology, 2025):
# The other results are listed elsewhere or left out.
# B1: Q9UKT9 (peptide)
# chain: LTCPICGFKCTQKGNLLRHIKL
# B2: Q9UKT9 (peptide)
# chain: FHCNQCGAFFTQKGNLLRHIKL
# B3: Q9UKT9 (peptide)
# chain: FHCPQCGADFTQKGNLLRHIKL
# B4: Q9UKT9 (peptide)
# chain: FQCNVCGAWFTQKGNLLRHIKL
# B5: Q9UKT9 (peptide)
# chain: FDCDQCGAWFTQKGNLLRHIKL
# B6: Q9UKT9 (peptide)
# chain: FNCDQCGARFTQKGNLLRHIKL
# B7: Q9UKT9 (peptide)
# chain: LLCEICGFSCTQKGNLLRHIKL
# B8: Q9UKT9 (peptide)
# chain: FDCEVCGAYFTQKGNLLRHIKL
# B9: Q9UKT9 (peptide)
# chain: FRCEQCGADFTQKGNLLRHIKL
# B10: Q9UKT9 (peptide)
# chain: LICEICGFNCTQKGNLLRHIKL
# B11: Q9UKT9 (peptide)
# chain: FMCEICGRWFTQKGNLLRHIKL
# B12: Q9UKT9 (peptide)
# chain: FDCEICGARFTQKGNLLRHIKL
# B13: Q9UKT9 (peptide)
# chain: FACNVCGASFTQKGNLLRHIKL
# B14: Q9UKT9 (peptide)
# chain: FFCEQCGAMFTQKGNLLRHIKL
# B15: Q9UKT9 (peptide)
# chain: FSCDQCGAYFTQKGNLLRHIKL
# B16: Q9UKT9 (peptide)
# chain: FECPICGRAFTQKGNLLRHIKL
# B17: Q9UKT9 (peptide)
# chain: FYCEICGHNFTQKGNLLRHIKL
# B18: Q9UKT9 (peptide)
# chain: FACEQCGAKFTQKGNLLRHIKL
# B19: Q9UKT9 (peptide)
# chain: FKCDICGATFTQKGNLLRHIKL
# B20: Q9UKT9 (peptide)
# chain: LHCEICGFGCTQKGNLLRHIKL
# B21: Q9UKT9 (peptide)
# chain: FFCEICGRVFTQKGNLLRHIKL
# B22: Q9UKT9 (peptide)
# chain: FNCPICGRMFTQKGNLLRHIKL
# B23: Q9UKT9 (peptide)
# chain: FQCPICGRMFTQKGNLLRHIKL
# B24: Q9UKT9 (peptide)
# chain: FGCPICGHRFTQKGNLLRHIKL
# B25: Q9UKT9 (peptide)
# chain: LKCEICGFPCTQKGNLLRHIKL
# B26: Q9UKT9 (peptide)
# chain: FKCPVCGASFTQKGNLLRHIKL
# B27: Q9UKT9 (peptide)
# chain: FLCEVCGAPFTQKGNLLRHIKL
# B28: Q9UKT9 (peptide)
# chain: FMCDVCGAWFTQKGNLLRHIKL
# B29: Q9UKT9 (peptide)
# chain: FQCEICGAHFTQKGNLLRHIKL
# B30: Q9UKT9 (peptide)
# chain: FVCEICGRGFTQKGNLLRHIKL
# B31: Q9UKT9 (peptide)
# chain: FGCNQCGRAFTQKGNLLRHIKL
# B32: Q9UKT9 (peptide)
# chain: FMCDICGAQFTQKGNLLRHIKL
# Molecular target: no compound (DMSO)
# Experiment: log2 fold change of degron read counts, EGFP-low vs EGFP+ sorted cells; higher = lower degron-EGFP level without compound (poor expression or instability)
# Details: compound: DMSO control; 18 h
# 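Further: jurkat cells carrying a lentiviral library of mutant zinc finger degrons fused to EGFP plus mCherry, mCherry+ cells FACS sorted, degron abundance counted by next-generation sequencing.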
row,Sequence,log2 fold change of degron read counts
1,B1,-0.0446
2,B2,-0.305
3,B3,-2.37
4,B4,-0.176
5,B5,0.113
6,B6,-1.25
7,B7,-0.172
8,B8,-0.271
9,B9,-3.12
10,B10,-0.714
11,B11,0.0147
12,B12,-1.44
13,B13,-0.984
14,B14,-0.62
15,B15,-1.42
16,B16,-0.528

row,Sequence,log2 fold change of degron read counts
1,B17,-0.4
2,B18,-2.25
3,B19,-2.86
4,B20,0.00382
5,B21,-0.905
6,B22,0.0456
7,B23,0.364
8,B24,-0.0281
9,B25,0.454
10,B26,-0.509
11,B27,-1.38
12,B28,-0.685
13,B29,-1.41
14,B30,-2.35
15,B31,0.395
16,B32,-1.91
